Laboratory results reported in PubChem BioAssay (NCI).
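Interpolation was linear, between the two tested concentrations surrounding the appropriate level; five concentrations were tested over 48 hours in 96-well plates. Abbreviation: GI50, concentration required for 50% inhibition of growth.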 Not every entry of the source has a single result; some have several. This is not the full list of results. An entry can have further records. For part of these data: Records of one sample usually come from different ranges of test concentrations, which the source does not state; a value can be the end of its range. Brackets tell where a record comes from. A, B and so on number the origins entry by entry. For part of these data: Values given together are repeats in other runs, samples, wells, individuals or studies.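 TGI: concentration producing complete growth inhibition.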

Key:
Test in all cases: NCI tumour cell line growth inhibition, 48 h
[1] = tested on: SNB-75 CNS
[2] = tested on: HL-60(TB) leukemia
[3] = tested on: CAKI-1 renal
[4] = tested on: IGROV1 ovarian
[5] = tested on: U251 CNS
[6] = tested on: MALME-3M melanoma
[7] = tested on: HOP-92 NSCLC
[8] = tested on: LOX IMVI melanoma
[9] = tested on: OVCAR-5 ovarian
[10] = tested on: SF-539 CNS
[11] = tested on: MOLT-4 leukemia
[12] = tested on: PC-3 prostate
[13] = tested on: DMS 273 small cell lung
[14] = tested on: MDA-MB-231 breast
[15] = tested on: HS 578T breast
[16] = tested on: CCRF-CEM leukemia
[17] = tested on: HCT-15 colon
[18] = tested on: NCI-H522 lung
[19] = tested on: UACC-257 melanoma
[20] = tested on: SF-295 CNS
[21] = tested on: MCF7 breast
[22] = tested on: A498 renal
[23] = tested on: SN12C renal
[24] = tested on: OVCAR-8 ovarian
[25] = tested on: NCI/ADR-RES ovarian
[26] = tested on: HOP-62 NSCLC
[27] = tested on: M14 melanoma
[28] = tested on: M19-MEL melanoma
[29] = tested on: HCT-116 colon
[30] = tested on: 786-0 renal
[31] = tested on: NCI-H23 lung
[32] = tested on: SK-MEL-2 melanoma
[33] = tested on: SN12K1 renal
[34] = tested on: UACC-62 melanoma
[35] = tested on: XF 498 CNS
[36] = tested on: SNB-78 CNS
[37] = tested on: SK-MEL-5 melanoma
[38] = tested on: UO-31 renal
[39] = tested on: SW-620 colon
[40] = tested on: DU-145 prostate
[41] = tested on: OVCAR-3 ovarian
[42] = tested on: SK-MEL-28 melanoma
[43] = tested on: EKVX NSCLC
[44] = tested on: P388 leukemia
[45] = tested on: OVCAR-4 ovarian
[46] = tested on: NCI-H226 lung
[47] = tested on: COLO 205 colon
[48] = tested on: DMS 114 small cell lung
[49] = tested on: K-562 leukemia
[50] = tested on: BT-549 breast
[51] = tested on: A549 NSCLC
[52] = tested on: NCI-H460 lung
[53] = tested on: HCC-2998 colon
[54] = tested on: SF-268 CNS
[55] = tested on: KM20L2 colon
[56] = tested on: HT29 colon
[57] = tested on: DLD-1 colon
[58] = tested on: RXF 393 renal
[59] = tested on: SNB-19 CNS
[60] = tested on: KM12 colon
[61] = tested on: RPMI-8226 leukemia
[62] = tested on: SK-OV-3 ovarian

`COc1ccccc1S(=O)(=O)Nc1ccc2c(c1)CN(C)C(=O)N2` was tested, and the TGI [1] was 6.48 µM [sample A, mean of 2 tests] and > 100 µM [sample B, mean of 2 tests].
For `COC1=Nc2ccccc2S(=O)(=O)C=C1`, the TGI [2] was 458 nM and 6.66 µM and the TGI [3] was 620 nM and 27.2 µM.
`O=C(O)c1ccc2c(c1)nc(Nc1cccc(Cl)c1)c1ccncc12` was tested, and the TGI [4] was > 100 µM [sample A, mean of 2 tests] and 8.98 µM [sample B, 1 test] and the TGI [5] was > 100 µM [sample A, 1 test] and 8.61 µM [sample B, 1 test].
With `COc1cc2cc(c1Cl)N(C)C(=O)C[C@H](OC(=O)[C@H](C)N(C)C(C)=O)[C@]1(C)O[C@H]1[C@H](C)[C@@H]1C[C@@](O)(NC(=O)O1)[C@H](OC)C=C/C=C(\C)C2` the TGI [6] was 0.776 nM, 42.2 nM, 17.7 µM, 38.7 µM, the TGI [7] was 0.718 nM, 33.1 nM, 5.81 µM, 506 nM and the TGI [8] was 2.5 nM, 15.7 nM, 32.3 µM, 51.4 µM. The TGI [9] was 83.3 nM, > 46.4 µM, 238 µM, the TGI [10] was 0.0505 nM [1 test] and 34.9 nM [mean of 10 tests] and 33.4 nM [mean of 13 tests] and 0.000819 nM, 12.5 nM [mean of 5 tests] and the TGI [11] was 0.631 nM, 0.000538 nM, 46.5 nM, 51.4 µM, 4.6 µM. The TGI [12] was 44.9 nM and 2.81 µM, the TGI [13] was 0.0506 nM, 2.5 nM, 306 nM, 2.19 µM and the GI50 [14] was 0.555 nM and 95.9 nM. The TGI [14] was 10.9 nM and 8.06 µM, the TGI [15] was 44.9 nM and 10.9 µM and the TGI [2] was 0.00101, 0.000363, 63.3, 235, 231 nM. For the same compound, the TGI [16] was 0.000555 nM, 28.6 nM, 29.2 µM, 12.5 µM, the TGI [17] was 49 nM, 3.69 µM, 21.4 µM and the TGI [18] was 0.000996 nM [1 test] and 77.8 nM [mean of 11 tests] and 78.4 nM [mean of 6 tests] and 3.18 nM [mean of 7 tests]. For the same compound, the TGI [19] was 48.8 nM, > 98.1 µM, 196 µM, the TGI [20] was 2.5 nM [1 test] and 217 nM [mean of 12 tests] and 0.00269 nM, 890 nM [mean of 5 tests] and 26.3 nM [mean of 6 tests] and the TGI [21] was 2.5 nM, 57.5 nM, 91.9 µM, 15.3 µM. The TGI [22] was 0.0464, 40, 222, 398 nM, the TGI [23] was 1.65 nM, 13.8 nM, 49.2 µM, 85.4 µM and the TGI [24] was 0.675 nM, 2.5 nM, 45.1 nM, 1.35 µM, 4.61 µM. For the same compound, the TGI [25] was 58.9 nM, 244 nM [mean of 7 tests] and 7.93 µM [mean of 8 tests], the TGI [26] was 0.0151 nM, 2.5 nM, 43.4 nM, 6.26 µM, 43.3 µM and the TGI [4] was 15.8 nM, 42 µM, 84.3 µM. The TGI [27] was 14.7 nM and 8.82 µM, the TGI [28] was 2.5 nM, 80.9 µM, 187 µM and the TGI [29] was 2.5 nM, 19.2 nM, 189 nM, 3.72 µM. The TGI [30] was 92.2 nM and 57.8 µM, the TGI [31] was 0.0844 nM, 0.108 nM, 21.1 nM, 1.79 µM, 3.46 µM and the TGI [5] was 0.0783 nM, 50.5 nM, 661 nM, 5.06 µM. The TGI [32] was 10.6 µM [mean of 11 tests] and 0.0655 nM [mean of 3 tests] and 2.5 µM [mean of 4 tests] and 55 nM [mean of 6 tests], the TGI [33] was 0.000856 nM, 2.5 nM, 84.6 nM and the TGI [34] was 2.09 nM, 46.1 µM, 71.9 µM. The TGI [35] was 0.00358 nM, 413 nM, 590 nM, the TGI [36] was 1.41 nM, 40.9 µM, 20.8 µM and the TGI [37] was 0.713, 2.5, 3.92, 157, 381 nM. For the same compound, the TGI [38] was 250 µM [mean of 5 tests] and 58.7 nM [mean of 6 tests], the TGI [39] was 49.7 nM, 57.9 µM, 110 µM and the TGI [40] was 47.7 nM and 3.95 µM. For the same compound, the TGI [41] was 2.5 nM [1 test] and 0.000117 nM [mean of 3 tests] and 116 nM [mean of 6 tests] and 11.3 nM [mean of 7 tests] and 99.5 nM [mean of 8 tests], the TGI [42] was 95.9 nM, 99.3 µM, 140 µM and the TGI [43] was 49.1 nM, > 92.3 µM, 45.5 µM. For the same compound, the TGI [44] was 0.0111 nM, 0.00357 nM, 1.02 µM, 640 nM, the TGI [1] was 50.7 nM [mean of 3 tests] and 128 µM [mean of 6 tests] and 14.2 µM [mean of 9 tests] and the TGI [45] was 57 nM and 250 µM. The TGI [46] was 0.00273, 47.6, 331, 32.9 nM, the TGI [47] was 0.0145, 2.5, 7.45, 46.3, 88.3 nM and the TGI [48] was 0.0145, 0.542, 149, 62 nM. For the same compound, the TGI [49] was 0.658 nM, 0.286 nM, 28.6 nM, 66.7 µM, 180 µM, the TGI [50] was 52.6 nM and 28.2 µM and the TGI [51] was 2.5 nM, 62.8 nM, 56.7 µM. The TGI [52] was 0.773, 2.5, 24, 560, 835 nM, the TGI [53] was 0.0131, 14.1, 66.9, 182 nM and the TGI [54] was 29.6 nM, 28.6 µM, 88.8 µM. The TGI [55] was 2.5 nM [1 test] and 0.000891 nM [mean of 5 tests] and < 16.2 nM [mean of 6 tests], the TGI [56] was 2.16 nM, 30.2 nM [1 test] and 50.8 nM [mean of 10 tests] and 0.0391 nM, 61.4 nM [mean of 5 tests] and the TGI [57] was 2.5 nM, > 97.7 µM, 97.4 µM. For the same compound, the TGI [58] was 0.0133 nM, 0.0429 nM, 59.6 nM, 4.67 µM, 2.6 µM, the TGI [59] was 0.668 nM, 61.9 nM, 8.38 µM, 17.6 µM and the TGI [60] was 0.109 nM [mean of 4 tests] and 51.7 nM, 1.44 µM [mean of 7 tests] and 3.87 µM [mean of 9 tests]. The TGI [61] was 0.00113 nM [1 test] and 21.8 µM [mean of 10 tests] and 64.7 µM [mean of 12 tests] and 31.7 nM [mean of 5 tests], the TGI [62] was 9.87 µM [mean of 11 tests] and 44.7 nM [mean of 5 tests] and 18.5 µM [mean of 8 tests] and the TGI [3] was 2.5 nM [1 test] and 5.25 µM [mean of 12 tests] and 55.4 nM, 9.69 µM [mean of 7 tests].
In the case of `Nc1nc(N)c2nc(CNc3ccc(C(=O)NC(CCCNC(=O)c4ccccc4C(=O)O)C(=O)O)cc3)cnc2n1` (stereo not given), the GI50 [6] is reported as 53.4 µM [sample A, 1 test] and 1.96 nM [sample B, 1 test], the TGI [7] is reported as 794 nM [sample A, 1 test] and > 100 µM [sample B, mean of 2 tests] and the TGI [20] is reported as > 100 µM [sample A, mean of 2 tests] and > 100 µM [sample B, 1 test] and 72.8 nM [sample B, mean of 2 tests]. For the same compound, the GI50 [22] was > 100 µM [sample A, 1 test] and 21.6 nM [sample B, mean of 2 tests], the GI50 [36] was > 100 µM [sample A, mean of 2 tests] and 0.448 nM [sample B, 1 test] and the GI50 [42] was < 10 nM [sample A, 1 test] and 4.64 nM [sample B, 1 test] and 60.6 nM [sample B, mean of 2 tests]. The GI50 [43] was < 10 nM [sample A, mean of 2 tests] and 22.1 nM, > 100 µM [sample B, mean of 2 tests], the GI50 [1] was 1.43 µM [sample A, mean of 2 tests] and > 100 µM [sample B, mean of 2 tests] and the GI50 [54] was 40 nM [sample A, 1 test] and 1.83 nM [sample B, mean of 2 tests]. The GI50 [58] was > 100 µM [sample A, 1 test] and 29.2 nM [sample B, mean of 2 tests] and 2.69 µM [sample B, mean of 3 tests], the GI50 [62] was > 39.5 µM [sample A, mean of 2 tests] and 50.5 nM [sample B, mean of 2 tests] and the TGI [62] was > 100 µM [sample A, mean of 2 tests] and 84.6 nM, > 100 µM [sample B, mean of 2 tests].
With `C/C(=C\c1ccc(Cl)c(Cl)c1)[N+](=O)[O-]` the TGI [39] was 3 µM [sample A] and > 100 µM [sample B], the TGI [1] was 2.78 µM [sample A] and > 100 µM [sample B] and the TGI [49] was > 100 µM [sample A] and 8.36 µM [sample B].
`N#Cc1ccc(C(c2ccc(C#N)cc2)n2cncn2)cc1` was tested, and the GI50 [18] was 73.3 µM and > 5 mM, the GI50 [22] was 25.4 µM and > 5 mM and the GI50 [24] was 79.5 µM and > 5 mM. For the same compound, the GI50 [32] was 13.8 nM and > 5 mM, the TGI [32] was 69.2 µM and > 5 mM and the GI50 [42] was 52.1 µM and > 5 mM. For the same compound, the GI50 [50] was 11.9 nM and > 5 mM.
